These results are taken from PubChem BioAssay (NCI).

The test system of the assay is SNB-19 CNS. Description: NCI-60 one-dose screen, 48 h (100 = growth as untreated, 0 = no growth, -100 = all killed). As to conditions: 0.25 µM.

More than one record can exist for a structure, and the calls need not agree.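 Results are percent growth after 48 hours of single-concentration exposure. 100 means growth as in untreated cells, lower positive values show inhibition; negative values down to -100 show cell death.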 A number of entries come with more than one value. This is not the full list of results. An entry can have further records. Rule for the calls: active = growth percent below 10; inactive = the rest. The screen tested this drug many times, at the concentration stated with the values; one value stands for one run. Signs of the kind (2×) give the number of equal values in this list.

On to `COc1cccc2c1C(=O)c1c(O)c3c(c(O)c1C2=O)C[C@@](O)(C(=O)CO)C[C@@H]3OC1CC(N)C(O)C(C)O1` (stereo not given in full), for which the growth result (runs of 2006) is “active: 8.07%, 9.72%”; the growth result (runs of 2007) was “inactive: 14, 18.6, 19, 16.2, 17.4, 15 (2×), 35.4, 24.3, 36.3, 30.3, 20.5, 15.3, 24.5, 39.8, 36.6, 27.8, 13.1, 14.2, 23.9, 17 (2×), 29.8, 15.9, 19.2, 24.2, 23.1, 26.3, 64.5, 56.7, 38.7, 20.7, 20.4, 17.1, 21.2, 23.4% and active: 8.29%, 9.46%, 8.68%”; the growth result (runs of 2008) was “inactive: 27.1, 18, 21.5 (2×), 16.1 (2×), 49.2, 31.6, 24.3, 25.8, 33.2, 28.8, 20.5 (2×), 21.9, 27.8, 10.1, 31.9, 14.6 (2×), 11.2, 17.3 (2×), 27.9, 26.5, 31.1, 29.7, 20.2, 86, 16.7, 10.4, 14 (2×), 14.8, 25.2, 25.5, 49.7, 21, 10.6, 21.6, 17.4, 29.3, 16.3, 41.8, 19, 23.3% and active: 9.1, -2.16, 9.27, 9.21, 8.3%”; the growth entry (runs of 2009) was “inactive: 22.5, 20.3, 31.5, 45, 13.3 (2×), 17.1, 21.7, 25.5, 26.5 (2×), 30.5, 31.7, 21.9 (3×), 34.5, 36.9, 24.7, 17.8, 20.6, 23.1, 24.6, 21.8, 32.4, 16.7, 22.3, 28.4, 24.8, 29.6, 33.4, 10.7, 30.3, 19.2, 13.4 (2×), 29.7, 12.3, 12.1, 10.1, 27.7, 14.1, 20.1, 22.1, 13.2, 18.2, 18.3, 30.2, 41.9, 19.5 (2×), 18.9, 32.5, 26.9, 19.9, 19.8, 33.5, 23.8% and active: -3.39, 9.49, -8.11, 9.28, 5.39%”; the growth result (runs of 2010) was “inactive: 18.2, 26.6 (2×), 36, 35.7, 30.3, 39.7, 25.4 (2×), 24 (2×), 31.2, 31.5, 28.3, 25.2, 22.4, 27, 21.7 (3×), 24.4, 26.3, 31.8, 26.8, 27.9, 24.8 (2×), 18, 39.5, 37, 23.2, 30.2, 20.6, 22.6, 17.2, 24.2, 19.2, 25.6, 23.3, 28, 21.5, 33, 31.6, 27.1, 25.5 (2×), 29.5, 25.7, 24.1 (2×), 26.7, 29.6, 27.4%”; the growth entry (runs of 2011) was “inactive: 27, 26.7 (2×), 30.3 (3×), 30.7 (2×), 35.3 (2×), 26.6, 27.1, 32, 15.9, 31.2, 26.9 (3×), 28.4, 24.7, 26.8 (2×), 27.9, 32.1, 28.9 (2×), 24.8, 29.3, 35.9, 30.2, 29.1, 31.3, 27.3, 26 (3×), 20.9 (2×), 23.2, 24.2 (2×), 22.3, 21.5, 18.2, 25.1, 17.4, 23.8, 20.4, 22.1, 25, 21.2, 25.8, 25.2, 28, 27.7, 26.2, 28.2, 27.8% (2×)”. The growth result reads like this: (runs of 2012) “inactive: 25.9, 20.2, 33.3 (2×), 33 (2×), 31.4 (2×), 36.9, 35.8, 40.3 (3×), 43.6, 26.9, 27.6, 27.9 (2×), 25.8 (2×), 30.7 (2×), 30.9, 37.1, 38.6, 34.7, 31.3 (2×), 33.8, 44.6, 48.1, 51.7, 48.7, 49.4, 49.3, 37.7, 38, 30.6, 47.6, 43.4, 35.5, 20 (2×), 41.1, 35, 36.4, 28 (3×), 33.2, 35.2, 38.4, 41.2, 39.2 (2×), 44.1, 23.2, 32.9, 37.3, 39.1, 47, 43.7, 46.3, 34.2, 38.5, 34, 25.6, 33.4, 36, 36.6%”; (runs of 2013) “inactive: 33.7, 26.1, 26.3, 30.6, 33.4, 29.3, 37, 31, 43.4, 38.3, 45.7, 52.4, 56.6, 52.3, 46, 60.5, 48.3, 38.8, 44.4, 36.3, 34.5, 45.5, 37.8, 37.4, 40.9, 35.8, 38.5, 30.7, 24.5, 25.7, 27, 35.7, 36.4, 32.4, 29.1, 35.1, 39.8, 34.3, 32.2, 39, 36.1, 40.5, 15.3, 20.8, 24.7, 16, 25.6, 36, 27.9, 16.7 (2×), 27.2, 32.3, 25.5, 10.5, 21.1, 23.7, 17, 18.8, 24.9, 30.4, 21.4, 12.7, 27.4, 12.6% and active: -7.15%, 7.88%, 1.81%”; (runs of 2014) “inactive: 27.9, 30, 21.7, 12.1, 14.5 (3×), 16.8 (2×), 12.9, 13.9, 19.2, 16 (2×), 13.6, 22.5 (2×), 21.6, 21.4 (2×), 25.8, 23.8, 24.7, 18.3 (2×), 18.2, 18.9, 14.8, 13.3, 13.4, 18.8 (2×), 18.4, 13.1 (3×), 14.2, 16.4, 19 (2×), 18.6 (2×), 10.8, 13.2, 16.2, 17.8, 21.2, 20.5, 26.1, 22.1, 13.7, 16.1, 15.4, 15, 20.3, 24.8, 17.2% and active: 8.16, -8.08, -14.9, -6.77, -6.69, 2.78, 9.92, 7.93, 9.04, 9.77%”; (runs of 2015) “inactive: 11.4, 25.8, 45.7, 13.2 (2×), 15, 16.4 (3×), 17.8, 26, 26.1, 14.9, 17.2, 25.4, 20, 16.6 (2×), 12.6, 23.8, 23.1, 19.5 (3×), 17.3 (2×), 17.6, 19.3, 15.9, 28.7, 18.8 (2×), 19, 23.2, 20.8, 21.3, 24.7, 18.6, 18.3, 13 (2×), 22.2, 19.8, 12.1 (2×), 21.5, 20.2, 14.4, 11.2, 21.6 (2×), 27.1, 20.7, 11, 21.2, 16.7, 19.2, 12.7, 14.2, 19.9, 20.1, 27.3, 20.3, 29.6% and active: 8.61, 7.52, 9.65 (2×), 8.78, 7.39%”; (runs of 2016) “inactive: 22.6, 14.8 (2×), 24, 25.6, 26.7 (2×), 20.9 (2×), 20.7, 20.2 (2×), 21.9, 22.7 (2×), 18.4 (2×), 18.2 (2×), 18.9, 22.3 (2×), 28.9, 29.6, 24.1, 27.8, 31.2, 22.1 (2×), 19.9, 26.5, 22.4, 14.5, 19.6, 16.2, 16.4, 13.7, 19, 14.6, 20.1, 13.6, 20.4, 14.7, 19.3 (2×), 16, 15.9, 23.1, 17 (2×), 19.8, 15.4, 19.2, 28.2, 25, 20.8, 20 (3×), 21.6 (2×), 17.6 (2×), 25.7, 26.9, 28.5, 23.9, 21.5, 20.3, 12, 12.7, 17.1% and active: 9.61%”; (runs of 2017) “inactive: 18.3 (2×), 19.2 (2×), 20.3, 16.8 (2×), 18.2 (2×), 17.4, 15.4 (5×), 13.9, 13.4 (3×), 15.9 (2×), 14 (2×), 12.6, 12.7 (2×), 13.7, 11.2, 10.9, 14.4, 14.7 (3×), 13.3 (3×), 16.4, 14.6 (2×), 13, 13.1 (2×), 17 (2×), 16.1, 17.1, 16.6 (2×), 16.7 (3×), 17.3, 19.3, 18 (2×), 18.4 (2×), 14.5 (5×), 20, 20.4, 16.2, 14.1, 20.2, 20.5, 15%”. Moreover, the growth entry was “inactive: 12.3, 14.6 (2×), 11.8, 12 (2×), 14, 13.1, 13.2 (2×), 14.1, 16 (2×), 15.4, 19.5 (2×), 23.7, 19.2 (2×), 19.3, 19.6 (2×), 18.2 (3×), 14.2, 18, 13.7, 18.4, 18.3 (2×), 21.2, 20.3, 17.6, 20.4, 21, 21.3, 21.6, 20.2, 15.3, 20.9, 22.3, 23.6, 21.5, 24.8, 23.8, 18.6, 19.8, 16.4, 17.8, 16.6, 17.1%” (runs of 2018); “inactive: 11.9 (2×), 14.2 (2×), 11.7 (2×), 11.8, 14.7 (2×), 13.6 (2×), 16, 12.6 (4×), 12.2, 14.8 (2×), 18.2, 13.9 (2×), 13.2, 12.1, 12.7, 15.3 (3×), 13.4 (2×), 14.1, 15.4, 17, 17.8, 16.7, 12.3, 14, 15, 16.1 (2×), 14.5, 14.6, 10.4% and active: 9.75, 9.04, 9.69, 9.73, 9.33%” (runs of 2019); “inactive: 12.6, 21.6, 20.9, 20.1, 23, 22.6, 19.9 (2×), 10.1, 13.1, 10.6, 11.3, 14.2, 16.1, 20.2, 14.8, 14.9, 13.7, 13.3, 14.7%” (runs of 2020).
